Laboratory results as given in publication PMC4336329 (PLoS ONE, 2015).
Among all 310,000 compounds or so, about 2,200 (0.71%) showed an effect of 50% or more. Effects have a minus sign here. This is one part of the list. Where a SMILES comes first, the peptide text is derived from it. [ ]: non-standard residue; d: D form. ξ: configuration not given here. ξF = NC(Cc1ccccc1)C(=O)O

Biological target: human ether-à-go-go-related gene (hERG) potassium channel (human, UniProt Q12809)
Assay: primary screen, population patch clamp on CHO cells stably expressing hERG

human ether-à-go-go-related gene (hERG) potassium channel, sequence (Q12809 whole entry, looked up): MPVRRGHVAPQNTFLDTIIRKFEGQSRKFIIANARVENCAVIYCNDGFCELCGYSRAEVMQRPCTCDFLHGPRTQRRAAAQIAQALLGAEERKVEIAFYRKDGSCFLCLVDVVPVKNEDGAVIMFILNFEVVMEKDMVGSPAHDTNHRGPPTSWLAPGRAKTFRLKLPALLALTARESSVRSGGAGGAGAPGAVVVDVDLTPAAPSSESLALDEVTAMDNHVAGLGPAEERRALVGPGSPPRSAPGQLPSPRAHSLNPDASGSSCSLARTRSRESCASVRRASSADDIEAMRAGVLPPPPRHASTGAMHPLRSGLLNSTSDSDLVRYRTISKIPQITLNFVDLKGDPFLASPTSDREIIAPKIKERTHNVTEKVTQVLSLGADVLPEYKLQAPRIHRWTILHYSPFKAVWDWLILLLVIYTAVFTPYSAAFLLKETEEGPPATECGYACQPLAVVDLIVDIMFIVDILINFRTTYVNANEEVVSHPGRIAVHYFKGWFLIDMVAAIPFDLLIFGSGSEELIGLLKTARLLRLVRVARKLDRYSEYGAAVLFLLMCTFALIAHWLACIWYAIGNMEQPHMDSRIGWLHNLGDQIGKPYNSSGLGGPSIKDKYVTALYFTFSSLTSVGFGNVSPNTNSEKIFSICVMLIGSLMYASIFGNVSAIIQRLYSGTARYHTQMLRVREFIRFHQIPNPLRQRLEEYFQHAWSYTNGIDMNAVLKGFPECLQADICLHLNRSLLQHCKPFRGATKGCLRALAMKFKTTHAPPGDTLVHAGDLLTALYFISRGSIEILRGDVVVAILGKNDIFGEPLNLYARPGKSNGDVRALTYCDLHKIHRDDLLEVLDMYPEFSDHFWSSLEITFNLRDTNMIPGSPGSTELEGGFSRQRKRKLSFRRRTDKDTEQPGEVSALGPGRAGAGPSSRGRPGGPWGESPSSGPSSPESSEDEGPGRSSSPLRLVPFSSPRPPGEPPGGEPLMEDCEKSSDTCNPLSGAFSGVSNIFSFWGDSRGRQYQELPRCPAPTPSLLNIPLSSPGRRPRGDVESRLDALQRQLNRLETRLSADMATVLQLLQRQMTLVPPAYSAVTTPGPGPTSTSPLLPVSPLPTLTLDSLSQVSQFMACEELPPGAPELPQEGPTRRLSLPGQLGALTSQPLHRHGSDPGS

Compound | hERG current change (%, negative = inhibition) at 1uM
COc1cc(OC)c(C2N(c3ccc(Cl)c(Cl)c3)C(=O)C3CCCN32)cc1OC (stereo not shown) | 2.22%
CN1C(=O)C2(Oc3ccccc3C3CC(c4ccccc4)=NN32)c2ccccc21 (stereo not shown) | 6.1%
O=C(O)C(O)c1ccccc1.O=C(O)C(O)c1ccccc1 (stereo not shown) | 18.6%
CCN(CC(=O)Nc1ccc(S(=O)(=O)N2CCOCC2)cc1)Cc1ccccc1 | 17%
Cc1cc(C(F)(F)F)c2c(C)nn(CCc3nn[nH]n3)c2n1 | -0.22%
CC(=O)c1sc(C(C)(C)C)cc1NC(=O)CCC(=O)O | 10.6%
COc1ccccc1CNC(=O)COC(=O)c1cc([N+](=O)[O-])ccc1N1CCOCC1 | -13.7%
Cc1c(-n2cc(C(=O)O)c(=O)c3cc(F)c(N4CCCC(O)C4)c(F)c32)c(=O)n(-c2ccccc2)n1C (stereo not shown) | 6.46%
CC(=O)NCC(=O)NC(Cc1ccccc1)C(N)=O (stereo not shown) (Ac-Gly-[ξF]-NH2) | 10.1%
CC(C)c1cc(C(=O)O)c2cnn(C(C)C)c2n1 | -4.12%
Cc1csc(/C(=N\O)c2csc(C)n2)n1 | 7.71%
CCN(CC)CCCN1C=C2C(=O)C(C)(OC(=O)CCC(=O)OC)C(=O)C=C2C=C1C1CC1 (stereo not shown) | -6.2%
Cc1ccc(Cn2nc(C)c(NC(=O)C3CC3)c2C)cc1 | 6.57%
CC(=C/c1ccccc1)/C=N/NC(=O)c1ccccn1 | 0.84%
CCOc1ncccc1C(=O)N1CCN(S(=O)(=O)c2ccc3c(c2)OCCO3)CC1 | 8.5%
O=c1oc(-c2cc3ccccc3o2)nc2sc3c(c12)CCCC3 | 10.7%
COc1ccc(Nc2nc(N)c([N+](=O)[O-])c(NC3CCCCC3)n2)cc1 | 8.56%
O=C(O)c1cc(=O)cc(C(=O)O)[nH]1 | 7.81%
CNC(=S)N1N=C(c2cccs2)CC1c1ccc(F)cc1 (stereo not shown) | 0.109%
Nc1c(NCc2ccccc2)c(=O)[nH]c(=O)n1Cc1ccccc1 | -16.7%

Compound | hERG current change (%, negative = inhibition) at 1uM
Cc1ccc2[nH]c3c(c2c1)CN(C)CC3.Cl | 8.17%
CCN(CC)S(=O)(=O)c1cccc(NC(=O)COc2ccc(Cl)cc2Br)c1 | 10.8%
CC(C)N(Cc1ccccc1)S(=O)(=O)c1ccc(F)cc1 | 12.7%
COc1ccc(C)c2sc(=NC(=O)C(C)C)n(C)c12 | 2.38%
O=C(Nc1ccccc1Br)C1CCN(C(=O)Cc2ccccc2)CC1 | 3.94%
CCN1CCN(CCC(=O)Nc2cc(OC)ccc2OC)CC1.Cl | 13.1%
COc1ccc(Cc2nnc(SCC(=O)Nc3ccccc3C)n(N)c2=O)cc1 | 14.1%
CCOc1cc(/C=C2/SC(=O)N(CC(=O)N3CCc4ccccc4C3)C2=O)ccc1OCC(=O)O | 5.33%
COc1ccc(S(=O)(=O)N2CCOC23CCN(S(=O)(=O)c2cc(F)ccc2F)CC3)cc1 | 10.4%
Cc1nc2ncccn2c1-c1csc(NCc2ccco2)n1 | -10.8%
C1CCC(OCCN2CCN(CCOC3CCCCC3)CC2)CC1 | 4.4%
Nc1cc(=O)[nH]n1C1CCCC1 | 21.4%
COc1ccccc1N1CC(O)=C(c2nc3ccccc3s2)C1=N | 5.15%
Cc1cc(N2CCC(C(=O)NC3CC3)CC2)nc(-c2ccccc2)n1 | -4.67%
C=CCN1C(=O)N/C(=C/c2ccc(C)o2)C1=O | -2.88%
CCCCN(C)C(=O)c1cccc(OC2CCN(CC(C)(C)C)CC2)c1 | 4.04%
CC(=O)C(Sc1nccc(-c2cccs2)n1)C(C)=O | -1.67%
CCCCN(CCCC)CCNC(=O)c1cn(C)c2ccc(S(=O)(=O)N3CCCC3)cc2c1=O | -2.94%
O=C(C1CCN(S(=O)(=O)c2cccs2)CC1)N1CCc2ccccc2C1 | 9.76%
COC(=O)C1C(c2ccc(N(C)C)cc2)C(C(=O)OC)S(=O)(=O)CS1(=O)=O (stereo not shown) | 5.71%

Compound | hERG current change (%, negative = inhibition) at 1uM
COC(=O)c1ccc(OCC(=O)c2ccccc2)cc1 | -0.942%
CCC1C/C(=C/c2cccs2)C(=O)/C(=C/c2cccs2)C1 (stereo not shown) | 4.96%
COc1cc(C(=S)N2CCOCC2)ccc1OS(=O)(=O)c1ccc(C)cc1 | 7.86%
COc1ccc(Br)cc1CNC(=O)Nc1cccs1 | -8.11%
CCN(CC)C(=O)c1sc(NC(=O)Cc2ccc(OC)cc2)c(C#N)c1C | 3.46%
CC(=O)Nc1ccc(C(=O)CSc2nnc3scc(-c4ccccc4)n23)cc1 | 3.91%
CCOC(=O)c1c(NC(=O)CSc2ncnc3ccccc23)sc(C)c1C | 4.59%
CC(=O)c1ccc(N2CCN(C(=O)Cc3ccccc3)CC2)c(F)c1 | 4.43%
COc1ccccc1CN1CCCCCC1.O=C(O)C(=O)O | 17.4%
O=[N+]([O-])c1cc(C(F)(F)F)ccc1-n1nnc2ccccc21 | 9.07%
O=C(c1ccc(CNS(=O)(=O)c2ccccc2)cc1)N1CCN(c2ccccn2)CC1 | -2.53%
CCN(CC)CCN1C(=O)C(=O)/C(=C(/O)c2ccncc2)C1c1ccccc1F (stereo not shown) | 8.92%
O=C(Oc1cccnc1)c1cc2ccccc2oc1=O | -0.328%
CC(=O)n1c2ccccc2c2nc3ccccc3nc21 | 8.67%
Cc1nn(-c2ccccc2)c(C)c1NC(=O)COC(=O)c1cc(Br)ccc1O | 14.9%
CC(C)(C)NC(=O)CSc1nc(-c2ccc(F)cc2)cs1 | 22.3%
COc1ccc(O)c(C(=O)c2cnn(-c3ccccc3)c2)c1 | 12.1%
O=C(Nc1cc(S(=O)(=O)N2CCCCC2)ccc1N1CCCCC1)c1ccncc1 | -7.8%
